# The supplement of paper PMC8728848
# This is one part of the list.
# B1: PX14375C-bth-509-28-509 (Bacteroides thetaiotaomicron) (protein)
# chain: RSPQGQFTEDDNPNALVNGKIYNVYTMMRSFDITAGTPAIAIHYLRSEDSEKGSIPSDGSDVAEMYDDFLYTPTNGLLGSYWGKNYAIIYQCNDILDAIAEKETAGQTETEDIINKGEASFFRAYCYFNLVRAFGEVPLVTYKINDASEANIPKTTADKIYEQIDTDLKTAEESLPETWSTEYTGRLTWGAARSLHARTYMMRSDWDNMYKASTDVINKGLYNLKTPYNEIFTDDGENSGGSIFELQCTATAALPQSDVIGSQFCEVQGVRGAGQWDLGWGWHMATQLMADAYETGDPRKNATLLYFRKTDDEPITPENTNEPYGESPISPAMGAYFNKKAYTDPALRKEYTNKGFWVNIRLIRYSDVVLMAAEAANEKNIPGEAVDYLEMVRARARGTNTNILPKITTNDQGELREAIRHERRVELGLEPDRFYDLVRWGIASEVLHAAGKVNYQDKNALLPLPQSEIDKSKGVLVQNPDY
# How the values were obtained:
# Test in all cases: glycan array binding signal (z-score within array); higher = stronger binding
# Settings in all cases: glycan notation: IUPAC condensed, linker removed
# Gal3S6S(b1-4)GlcNAc = target: Gal3S6S(b1-4)GlcNAc
# How it was run: (§1)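 From the Consortium for Functional Glycomics database, 3228 arrays were curated, keeping only those whose protein sequence was available. Binding is given as a within-array Z-score averaged across arrays sharing a protein sequence and across linkers. Negative Z-scores can be read as non-binding.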
# Gal3S6S(b1-4)GlcNAc6S = target: Gal3S6S(b1-4)GlcNAc6S
# How it was run: as §1
# Gal4S(b1-4)GlcNAc = target: Gal4S(b1-4)GlcNAc
# How it was run: as §1
# Gal4S6S(b1-4)GlcNAc = target: Gal4S6S(b1-4)GlcNAc
# How it was run: as §1
# Gal6P(b1-4)GlcNAc = target: Gal6P(b1-4)GlcNAc
# How it was run: as §1
# Gal6S(b1-3)GlcNAc = target: Gal6S(b1-3)GlcNAc
# How it was run: as §1
# Gal6S(b1-3)GlcNAc6S = target: Gal6S(b1-3)GlcNAc6S
# How it was run: as §1
# Gal6S(b1-4)Glc = target: Gal6S(b1-4)Glc
# How it was run: as §1
# Gal6S(b1-4)Glc6S = target: Gal6S(b1-4)Glc6S
# How it was run: as §1
# Gal6S(b1-4)GlcNAc = target: Gal6S(b1-4)GlcNAc
# How it was run: as §1
# Gal6S(b1-4)GlcNAc6S = target: Gal6S(b1-4)GlcNAc6S
# How it was run: as §1
# GalNAc(a1-3)Gal = target: GalNAc(a1-3)Gal
# How it was run: as §1
# GalNAc(a1-3)GalNAc = target: GalNAc(a1-3)GalNAc
# How it was run: as §1
# [1] = target: GalNAc(a1-3)GalNAc(b1-3)Gal(a1-4)Gal(b1-4)Glc
# How it was run: as §1
# [2] = target: GalNAc(a1-3)GalNAc(b1-3)Gal(a1-4)Gal(b1-4)GlcNAc
# How it was run: as §1
# GalNAc(b1-3)Gal = target: GalNAc(b1-3)Gal
# How it was run: as §1
# [3] = target: GalNAc(b1-3)Gal(a1-4)Gal(b1-4)GlcNAc
# How it was run: as §1
# [4] = target: GalNAc(b1-3)Gal(a1-4)Gal(b1-4)GlcNAc(b1-3)Gal(b1-4)Glc
# How it was run: as §1
# [5] = target: GalNAc(b1-3)Gal(a1-6)Gal(b1-4)Glc
# How it was run: as §1
# GalNAc(b1-3)GalNAc = target: GalNAc(b1-3)GalNAc
# How it was run: as §1
# GalNAc(b1-3)GlcNAc = target: GalNAc(b1-3)GlcNAc
# How it was run: as §1
# GalNAc(b1-4)Gal(b1-4)Glc = target: GalNAc(b1-4)Gal(b1-4)Glc
# How it was run: as §1
# GalNAc(b1-4)GlcNAc = target: GalNAc(b1-4)GlcNAc
# How it was run: as §1
# [6] = target: GalNAc(b1-4)GlcNAc(b1-2)Man
# How it was run: as §1
# [7] = target: GalNAc(b1-4)GlcNAc(b1-2)Man(a1-3)[GalNAc(b1-4)GlcNAc(b1-2)Man(a1-6)]Man(b1-4)GlcNAc(b1-4)GlcNAc
# How it was run: as §1
# [8] = target: GalNAc(b1-4)GlcNAc(b1-3)GalNAc(b1-4)GlcNAc
# How it was run: as §1
# GalNAc(b1-4)GlcNAc6S = target: GalNAc(b1-4)GlcNAc6S
# How it was run: as §1
# GalNAc(b1-6)GalNAc = target: GalNAc(b1-6)GalNAc
# How it was run: as §1
# GalNAc3S(b1-4)GlcNAc = target: GalNAc3S(b1-4)GlcNAc
# How it was run: as §1
# GalNAc3S(b1-4)GlcNAc3S = target: GalNAc3S(b1-4)GlcNAc3S
# How it was run: as §1
# [9] = target: GalNAc3S(b1-4)[Fuc(a1-3)]GlcNAc
# How it was run: as §1
# GalNAc4S6S(b1-4)GlcNAc = target: GalNAc4S6S(b1-4)GlcNAc
# How it was run: as §1
# GalNAc6S(b1-4)GlcNAc = target: GalNAc6S(b1-4)GlcNAc
# How it was run: as §1
# Glc(a1-4)Glc = target: Glc(a1-4)Glc
# How it was run: as §1
# [10] = target: Glc(a1-4)Glc(a1-4)Glc(a1-4)Glc
# How it was run: as §1
# Glc(a1-6)Glc(a1-6)Glc = target: Glc(a1-6)Glc(a1-6)Glc
# How it was run: as §1
# [11] = target: Glc(a1-6)Glc(a1-6)Glc(a1-6)Glc
# How it was run: as §1
# Glc(b1-4)Glc = target: Glc(b1-4)Glc
# How it was run: as §1
binder,measurement,setting,value
B1,glycan array binding signal (z-score),Gal3S6S(b1-4)GlcNAc,-0.181
same,glycan array binding signal (z-score),Gal3S6S(b1-4)GlcNAc6S,-0.243
same,glycan array binding signal (z-score),Gal4S(b1-4)GlcNAc,-0.49
same,glycan array binding signal (z-score),Gal4S6S(b1-4)GlcNAc,-0.448
same,glycan array binding signal (z-score),Gal6P(b1-4)GlcNAc,-0.343
same,glycan array binding signal (z-score),Gal6S(b1-3)GlcNAc,-0.297
same,glycan array binding signal (z-score),Gal6S(b1-3)GlcNAc6S,0.978
same,glycan array binding signal (z-score),Gal6S(b1-4)Glc,-0.018
same,glycan array binding signal (z-score),Gal6S(b1-4)Glc6S,-0.059
same,glycan array binding signal (z-score),Gal6S(b1-4)GlcNAc,-0.076
same,glycan array binding signal (z-score),Gal6S(b1-4)GlcNAc6S,-0.224
same,glycan array binding signal (z-score),GalNAc(a1-3)Gal,-0.02
same,glycan array binding signal (z-score),GalNAc(a1-3)GalNAc,0.047
same,glycan array binding signal (z-score),[1],-0.305
same,glycan array binding signal (z-score),[2],-0.463
same,glycan array binding signal (z-score),GalNAc(b1-3)Gal,-0.121
same,glycan array binding signal (z-score),[3],-0.011
same,glycan array binding signal (z-score),[4],0.244
same,glycan array binding signal (z-score),[5],-0.426
same,glycan array binding signal (z-score),GalNAc(b1-3)GalNAc,1.2
same,glycan array binding signal (z-score),GalNAc(b1-3)GlcNAc,-0.255
same,glycan array binding signal (z-score),GalNAc(b1-4)Gal(b1-4)Glc,-0.326
same,glycan array binding signal (z-score),GalNAc(b1-4)GlcNAc,0.086
same,glycan array binding signal (z-score),[6],-0.066
same,glycan array binding signal (z-score),[7],-0.171
same,glycan array binding signal (z-score),[8],-0.228
same,glycan array binding signal (z-score),GalNAc(b1-4)GlcNAc6S,-0.027
same,glycan array binding signal (z-score),GalNAc(b1-6)GalNAc,-0.334
same,glycan array binding signal (z-score),GalNAc3S(b1-4)GlcNAc,-0.123
same,glycan array binding signal (z-score),GalNAc3S(b1-4)GlcNAc3S,-0.308
same,glycan array binding signal (z-score),[9],-0.31
same,glycan array binding signal (z-score),GalNAc4S6S(b1-4)GlcNAc,-0.328
same,glycan array binding signal (z-score),GalNAc6S(b1-4)GlcNAc,-0.093
same,glycan array binding signal (z-score),Glc(a1-4)Glc,-0.365
same,glycan array binding signal (z-score),[10],-0.348
same,glycan array binding signal (z-score),Glc(a1-6)Glc(a1-6)Glc,-0.336
same,glycan array binding signal (z-score),[11],-0.39
same,glycan array binding signal (z-score),Glc(b1-4)Glc,-0.346
